The other results are listed elsewhere or left out. Further columns of the screen follow, without active or inactive calls.
Legend:
Test in all cases: Primary Screen for Target Class Profiling of Small Molecule Inhibitors of Methyltransferases
[1] = target: Glycine N-methyltransferase (Homo sapiens) (UniProt Q14749); settings: purified enzyme, MTase-Glo SAH luminescence; measured here: GNMT inhibition; at 40 µM; stronger effect = lower value
In short: (§1)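 Each enzyme was reacted with SAM and its substrate, with compounds tested once at 40 uM; SAH formed was read by MTase-Glo luminescence.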

[2] = target: Guanidinoacetate N-methyltransferase (Homo sapiens) (UniProt Q14353); settings: purified enzyme, MTase-Glo SAH luminescence; measured here: GAMT inhibition; at 40 µM; stronger effect = lower value
In short: as §1

[3] = target: Histamine N-methyltransferase (Homo sapiens) (UniProt P50135); settings: purified enzyme, MTase-Glo SAH luminescence; measured here: HNMT inhibition; at 40 µM; stronger effect = lower value
In short: as §1

[4] = target: Nicotinamide N-methyltransferase (Homo sapiens) (UniProt P40261); settings: purified enzyme, MTase-Glo SAH luminescence; measured here: NNMT inhibition; at 40 µM; stronger effect = lower value
In short: as §1

[5] = target: Phenylethanolamine N-methyltransferase (Homo sapiens) (UniProt P11086); settings: purified enzyme, MTase-Glo SAH luminescence; measured here: PNMT inhibition; at 40 µM; stronger effect = lower value
In short: as §1
On the % scale 0 is the no-effect control and ±100 the full control effect.

| SMILES | activity change, negative = inhibition [1] [%] | activity change, negative = inhibition [2] [%] | activity change, negative = inhibition [3] [%] | activity change, negative = inhibition [4] [%] | activity change, negative = inhibition [5] [%] |
| --- | --- | --- | --- | --- | --- |
| CC(C)c1ccc(N2C(=O)c3cc4sccc4n3CC2(C)C(=O)NC2CCCCCC2)cc1 (stereo not drawn) | -1.56 | 3.64 | 5.49 | 4.59 | -0.993 |
| C/C=C(/C)C(=O)O[C@H]1C=C(CO)C(=O)[C@H](OC(=O)/C(C)=C/CO)[C@H]1C(C)C | -2.91 | 2.73 | 1.19 | -7.38 | -0.58 |
| Cc1cc(C#N)c(-c2ccccc2C(=O)N(C(C)C)C(C)C)nc1C | -2.19 | -0.387 | -17.8 | -6.18 | 0.881 |
| CC(C)NC(=O)Cn1nc2n(C(C)C)c(=O)c3ccc(C(=O)NC4CCCCC4)cc3n2c1=O | 1.76 | 5.49 | 5.88 | 2.33 | 1.97 |
| CCCN(C)c1nccnc1OC1CCN(C(=O)c2cccc(OC)c2OC)C1 (stereo not drawn) | -6.21 | -11 | -4.43 | -28 | -8.33 |
| CC(C)CNC(=O)c1ccc2c(=O)n(C)c3nn(Cc4cccc(Cl)c4)c(=O)n3c2c1 | 0.143 | 0 | 7.04 | -1.16 | 5.79 |
| COc1cc2c(cc1OC)CN(C(=O)[C@@H](NCc1ccncc1)C(C)(C)C)CC2 | -0.606 | 0.37 | 10.5 | -14.9 | 1.42 |
| CCOC(=O)c1ccc(Nc2nc3c(S(=O)(=O)c4ccc(C)cc4)nnn3c3ccccc23)cc1 | -0.104 | 0 | 8.66 | 8.14 | 1.34 |
| O=C(Nc1ccc(-c2ccc(Cl)c(Cl)c2)cc1)C1=C(O)c2ccccc2S(=O)(=O)N1 | -20.1 | 4.46 | 3.04 | -25.5 | 0.824 |
| O=C(NCc1ccccc1)[C@@H]1Cc2nc[nH]c2CN1Cc1cccc(OC(F)(F)F)c1 | -11.7 | -7.66 | -7.19 | -24.9 | -9.58 |
| CC1(C(=O)NC2CCCC2)Cn2c(nc3ccccc32)C(=O)N1CCc1ccc(Cl)cc1 (stereo not drawn) | 2.05 | 0 | 0.452 | 1.34 | -0.11 |
| N[C@@H](COP(=O)(O)O)C(=O)O | 11.4 | 14.8 | 15 | -2.02 | 0.949 |
| O=C1N[C@H](CC(=O)N2CCc3ccccc3C2)C(=O)Nc2ccccc21 | -1.73 | -7.17 | 1.44 | 0.118 | 1.42 |
| COCCN1C(=O)CC[C@]2(C(=O)N3CCCCCC3)CCCC[C@@H]12 | -0.483 | 1.33 | 0.919 | 1.45 | 1.15 |
| CC1=C2CC(=O)C(C)CC/C=C(\C)CC2OC1=O (stereo not drawn) | -3.8 | -5.78 | 4.5 | -13.7 | -11.2 |
| CCOC(=O)c1cc2n(n1)CC(C)(C(=O)NCc1ccccc1)N(Cc1cccc(C)c1C)C2=O (stereo not drawn) | -4.1 | 0.454 | -1.02 | 8.37 | -2.42 |
| COc1ccc2c(c1)OCC(CNC(=O)c1scc3c1OCCO3)C2 (stereo not drawn) | -3.9 | 1.02 | -0.145 | -10.2 | -5.41 |
| CC(C)CCNC(=O)C1c2c(n(C)c3ccccc23)SCC(=O)N1C1CCCCCC1 (stereo not drawn) | -5.58 | 3.62 | -3.44 | -5.76 | 1.17 |
| COC1C(O)C(OC2CCC3(C)C(CCC45CCC6C7(COC(=O)C7)OC4(O)C6(C)CCC35)C2)OC(C)C1OC1OC(CO)C(OC2OC(CO)C(O)C(O)C2O)C(O)C1O (stereo not drawn) | 3.4 | 2.81 | 7.55 | -9.95 | -3.97 |
| O=C(NCc1cccnc1)C1CCN(C2CCN(Cc3ccc4c(c3)CCO4)CC2)CC1 | -6.71 | -10.3 | -18.9 | -18.1 | -15.5 |

| SMILES | activity change, negative = inhibition [1] [%] | activity change, negative = inhibition [2] [%] | activity change, negative = inhibition [3] [%] | activity change, negative = inhibition [4] [%] | activity change, negative = inhibition [5] [%] |
| --- | --- | --- | --- | --- | --- |
| Cc1ccc(CNC(=O)CSc2nnc3n(CC(C)C)c(=O)c4cc(F)ccc4n23)cc1 | 1.54 | 0.811 | 8.45 | -6.97 | 3.11 |
| COc1ccc(CC(=O)N[C@H]2[C@H](O)[C@H](O)C[C@@H]2c2cccnc2)cc1 | 0.322 | -0.807 | 2.46 | 2.39 | -8.48 |
| Cc1cc(C)c(S(=O)(=O)NCCn2c(-c3ccccc3)nc3ccccc32)cc1C | -10.6 | 0 | 6.89 | -3.17 | 3.67 |
| O=C(Cn1ccc2cc(S(=O)(=O)N3CCCC3)ccc21)NCc1ccccc1Br | 4.08 | 3.86 | 7.51 | 3.42 | 3.89 |
| CC1(C(=O)NCc2ccccc2)Cn2c(ccc2-c2ccco2)C(=O)N1Cc1ccc(F)cc1 (stereo not drawn) | -2.02 | 4.92 | 1.9 | -2 | -3.16 |
| CCCCN1C(=O)c2cc(C(=O)Nc3ccc(C)cc3)nn2CC1(C)C(=O)NC1CCCC1 (stereo not drawn) | 4.66 | 0 | -15.7 | 1.86 | 2.61 |
| COc1ccc2cc3n(c2c1)CC(C)(C(=O)NC1CCCCC1)N(Cc1ccc(F)cc1)C3=O (stereo not drawn) | 1.73 | 0 | 2.58 | 7.4 | 0.207 |
| O=C1NC(=NC2CCCC2)C2(CCN(Cc3cccnc3)CC2)N1c1cc(F)cc(F)c1 | -2.82 | -3.43 | -5.93 | -7.05 | 6.54 |
| COc1ccc(-c2cc(C(O)C3CCCCN3)c3ccccc3n2)cc1 (stereo not drawn) | -9.01 | -6.4 | -12.4 | -18.9 | -5.36 |
| CCc1ccc(NC(=O)Cn2c(=O)oc3cc(S(=O)(=O)N4CCCCC4)ccc32)cc1 | -7.97 | -0.301 | -6.51 | -23.4 | -11 |
| Cc1cc2ncc(C(=O)N3CCOCC3)cn2n1 | -1.36 | -1.15 | 1.77 | 4.48 | -0.093 |
| Cc1cccc(CNC(=O)C2(C)Cn3cnc(C(=O)NC4CC4)c3C(=O)N2C2CC2)c1 (stereo not drawn) | -5.02 | 3.34 | -3.15 | -6.07 | -2.95 |
| CCCCc1oc2ccccc2c1C(=O)c1cc(I)c(OCCN(CC)CC)c(I)c1 | -0.586 | 8.13 | -10.8 | -10.8 | 4.2 |
| Cc1ccccc1NC(=O)CSc1nnc2n(CC(C)C)c(=O)c3ccc(C(=O)NC(C)C)cc3n12 | -2.46 | 1.98 | 0.948 | -2.46 | -2.35 |
| O=C1CCCC2=C1C(c1ccccc1I)N=C(Nc1nc3ccccc3o1)N2 (stereo not drawn) |  | -8.8 |  | -28.4 | -3.47 |
| COc1ccc(-c2nnc(-c3ccc(OC)c(S(=O)(=O)N4CCC(C)CC4)c3)o2)cc1OC | -3.53 | 0.729 | 11.7 | -5.09 | 8.65 |
| CC(C)(C)c1nnc(NS(=O)(=O)c2ccccc2)s1 | 6.27 | 4.49 | 7.92 | -8.28 | 4.69 |
| CCn1cc(-c2ccc(C)cc2)cc1C(=O)O | -8.02 | -9.57 | -3.14 | -10.5 | -3.68 |
| CCC(C)NC(=O)c1ccc2c(=O)n(C)c3nn(CC(=O)Nc4cccc(F)c4)c(=O)n3c2c1 (stereo not drawn) | 4.37 | 0 | -1.71 | 0.849 | 4.08 |

— PubChem BioAssay AID1745853 (National Center for Advancing Translational Sciences (NCATS), 2022)
